# Measurements reported in the supplement of paper PMC11246515.
# ± gives the standard deviation of the averaged measurements.
# Assay: total protein half-life in vivo (active degradation + dilution); higher = more stable protein
# [1] = E. coli NCM3722 delta-clpP delta-lon delta-hslV, growth: N-lim chemostat, doubling time 6 h
# [2] = E. coli NCM3722 delta-clpP, growth: N-lim chemostat, doubling time 6 h
# [3] = E. coli NCM3722 delta-hslV, growth: N-lim chemostat, doubling time 6 h
# [4] = E. coli NCM3722 delta-lon, growth: N-lim chemostat, doubling time 6 h
# [5] = E. coli NCM3722 delta-smpB, growth: N-lim chemostat, doubling time 6 h
# [6] = wild type E. coli NCM3722, growth: C-lim chemostat, doubling time 3 h
# [7] = wild type E. coli NCM3722, growth: C-lim chemostat, doubling time 6 h
# [8] = wild type E. coli NCM3722, growth: C-lim chemostat, doubling time 12 h
# [9] = wild type E. coli NCM3722, growth: N-lim chemostat, doubling time 6 h
# [10] = wild type E. coli NCM3722, growth: N-lim chemostat, doubling time 12 h
# [11] = wild type E. coli NCM3722, growth: P-lim chemostat, doubling time 6 h
# [12] = wild type E. coli NCM3722, growth: P-lim chemostat, doubling time 12 h
Sequence,total protein half-life in vivo [1] [h],total protein half-life in vivo [2] [h],total protein half-life in vivo [3] [h],total protein half-life in vivo [4] [h],total protein half-life in vivo [5] [h],total protein half-life in vivo [6] [h],total protein half-life in vivo [7] [h],total protein half-life in vivo [8] [h],total protein half-life in vivo [9] [h],total protein half-life in vivo [10] [h],total protein half-life in vivo [11] [h],total protein half-life in vivo [12] [h]
MATGKIVQVIGAVVDVEFPQDAVPRVYDALEVQNGNERLVLEVQQQLGGGIVRTIAMGSSDGLRRGLDVKDLEHPIEVPVGKATLGRIMNVLGEPVDMKGEIGEEERWAIHRAAPSYEELSNSQELLETGIKVIDLMCPFAKGGKVGLFGGAGVGKTVNMMELIRNIAIEHSGYSVFAGVGERTREGNDFYHEMTDSNVIDKVSLVYGQMNEPPGNRLRVALTGLTMAEKFRDEGRDVLLFVDNIYRYTLAGTEVSALLGRMPSAVGYQPTLAEEMGVLQERITSTKTGSITSVQAVYVPADDLTDPSPATTFAHLDATVVLSRQIASLGIYPAVDPLDSTSRQLDPLVVGQEHYDTARGVQSILQRYQELKDIIAILGMDELSEEDKLVVARARKIQRFLSQPFFVAEVFTGSPGKYVSLKDTIRGFKGIMEGEYDHLPEQAFYMVGSIEEAVEKAKKL [P0ABB4],6.94 ± 0.77,6.64 ± 0.56,7.03 ± 0.67,6.31 ± 0.26,5.674 ± 0.045,3.485 ± 0.02,6.46 ± 0.099,12.42 ± 0.062,5.87 ± 0.27,12.3 ± 0.31,6.32 ± 0.19,13.28 ± 0.046
MASENMTPQDYIGHHLNNLQLDLRTFSLVDPQNPPATFWTINIDSMFFSVVLGLLFLVLFRSVAKKATSGVPGKFQTAIELVIGFVNGSVKDMYHGKSKLIAPLALTIFVWVFLMNLMDLLPIDLLPYIAEHVLGLPALRVVPSADVNVTLSMALGVFILILFYSIKMKGIGGFTKELTLQPFNHWAFIPVNLILEGVSLLSKPVSLGLRLFGNMYAGELIFILIAGLLPWWSQWILNVPWAIFHILIITLQAFIFMVLTIVYLSMASEEH [P0AB98],6.3597 ± 0.0041,6 ± 0.46,6.43 ± 0.35,5.97 ± 0.19,6.41 ± 0.79,3.04 ± 0.043,5.318 ± 0.026,12.2 ± 0.71,5.99,11.7 ± 0.62,5.446 ± 0.051,12 ± 1.3
MENLNMDLLYMAAAVMMGLAAIGAAIGIGILGGKFLEGAARQPDLIPLLRTQFFIVMGLVDAIPMIAVGLGLYVMFAVA,6.29 ± 0.21,6.13 ± 0.89,5.79 ± 0.12,4.94 ± 0.5,6 ± 0.6,3.37 ± 0.19,5.929 ± 0.0094,11.1 ± 2.1,5.88 ± 0.14,10.6 ± 2.8,6.16 ± 0.19,12.3 ± 0.87
MTDLFSSPDHTLDALGLRCPEPVMMVRKTVRNMQPGETLLIIADDPATTRDIPGFCTFMEHELVAKETDGLPYRYLIRKGG [P0A890],> 8,,,,,,6.16,,4.32,7.48,5.38,11.6
MSQHLPLVAAQPGIWMAEKLSELPSAWSVAHYVELTGEVDSPLLARAVVAGLAQADTLRMRFTEDNGEVWQWVDDALTFELPEIIDLRTNIDPHGTAQALMQADLQQDLRVDSGKPLVFHQLIQVADNRWYWYQRYHHLLVDGFSFPAITRQIANIYCTWLRGEPTPASPFTPFADVVEEYQQYRESEAWQRDAAFWAEQRRQLPPPASLSPAPLPGRSASADILRLKLEFTDGEFRQLATQLSGVQRTDLALALAALWLGRLCNRMDYAAGFIFMRRLGSAALTATGPVLNVLPLGIHIAAQETLPELATRLAAQLKKMRRHQRYDAEQIVRDSGRAAGDEPLFGPVLNIKVFDYQLDIPDVQAQTHTLATGPVNDLELALFPDVHGDLSIEILANKQRYDEPTLIQHAERLKMLIAQFAADPALLCGDVDIMLPGEYAQLAQLNATQVEIPETTLSALVAEQAAKTPDAPALADARYLFSYREMREQVVALANLLRERGVKPGDSVAVALPRSVFLTLALHAIVEAGAAWLPLDTGYPDDRLKMMLEDARPSLLITTDDQLPRFSDVPNLTSLCYNAPLTPQGSAPLQLSQPHHTAYIIFTSGSTGRPKGVMVGQTAIVNRLLWMQNHYPLTGEDVVAQKTPCSFDVSVWEFFWPFIAGAKLVMAEPEAHRDPLAMQQFFAEYGVTTTHFVPSMLAAFVASLTPQTARQSCATLKQVFCSGEALPADLCREWQQLTGAPLHNLYGPTEAAVDVSWYPAFGEELAQVRGSSVPIGYPVWNTGLRILDAMMHPVPPGVAGDLYLTGIQLAQGYLGRPDLTASRFIADPFAPGERMYRTGDVARWLDNGAVEYLGRSDDQLKIRGQRIELGEIDRVMQALPDVEQAVTHACVINQAAATGGDARQLVGYLVSQSGLPLDTSALQAQLRETLPPHMVPVVLLQLPQLPLSANGKLDRKALPLPELKAQAPGRAPKAGSETIIAAAFSSLLGCDVQDADADFFALGGHSLLAMKLAAQLSRQVARQVTPGQVMVASTVAKLATIIDAEEDSTRRMGFETILPLREGNGPTLFCFHPASGFAWQFSVLSRYLDPQWSIIGIQSPRPNGPMQTAANLDEVCEAHLATLLEQQPHGPYYLLGYSLGGTLAQGIAARLRARGEQVAFLGLLDTWPPETQNWQEKEANGLDPEVLAEINREREAFLAAQQGSTSTELFTTIEGNYADAVRLLTTAHSVPFDGKATLFVAERTLQEGMSPERAWSPWIAELDIYRQDCAHVDIISPGTFEKIGPIIRATLNR,,,,,3.85,3.17 ± 0.14,7.52,15.2,,5.32,4.99 ± 0.083,9.11
MQLNSTEISELIKQRIAQFNVVSEAHNEGTIVSVSDGVIRIHGLADCMQGEMISLPGNRYAIALNLERDSVGAVVMGPYADLAEGMKVKCTGRILEVPVGRGLLGRVVNTLGAPIDGKGPLDHDGFSAVEAIAPGVIERQSVDQPVQTGYKAVDSMIPIGRGQRELIIGDRQTGKTALAIDAIINQRDSGIKCIYVAIGQKASTISNVVRKLEEHGALANTIVVVATASESAALQYLAPYAGCAMGEYFRDRGEDALIIYDDLSKQAVAYRQISLLLRRPPGREAFPGDVFYLHSRLLERAARVNAEYVEAFTKGEVKGKTGSLTALPIIETQAGDVSAFVPTNVISITDGQIFLETNLFNAGIRPAVNPGISVSRVGGAAQTKIMKKLSGGIRTALAQYRELAAFSQFASDLDDATRKQLDHGQKVTELLKQKQYAPMSVAQQSLVLFAAERGYLADVELSKIGSFEAALLAYVDRDHAPLMQEINQTGGYNDEIEGKLKGILDSFKATQSW [P0ABB0],6.41 ± 0.56,6.8 ± 1,6.21 ± 0.088,5.627 ± 0.0075,5.74 ± 0.22,3.23 ± 0.076,6.56 ± 0.27,11.6 ± 0.57,5.95 ± 0.18,11.3 ± 0.15,6.239 ± 0.024,13.3 ± 0.61
